In US20070009544A1, “Anti-allergic complex molecules” (priority 1999, published 2007):
Not every detail of the peptide structures is certain; ends, links or a residue may be inferred. Ends that are not written are not given here.

Assays:
mice [1] = test: IgE-independent mouse conjunctivitis induced by compound 48/80, clinical score; type: in vivo; set-up: Average Score, Erythema / Average Score, Lid edema / Average Score, Tearing / Average Score, Total score / Average Score, Chemosis: scale not given here
Procedure: A murine model was chosen as an in vivo model of IgE-independent human conjunctivitis, induced by a basic secretagogue.
Six groups of mice were topically treated as described in Table 19. The first application was installed 4 times (24 hours, 21 hours, 18 hours and 30 minutes) prior to the second application.
Clinical evaluation of allergic conjunctivitis was conducted in a blind fashion by determining the extent and intensity of lid edema, chemosis, erythema and tearing.

[2] = test system: rat peritoneal mast cells; test: Inhibition of IgE dependent (DNP-specific IgE / DNP-BSA) histamine secretion; type: cell-based
Procedure: Peptides 2 and 2-Suc were also tested in vitro for their ability to block histamine secretion from rat peritoneal mast cells, in response to the IgE-dependent mechanism. The IgE dependent pathway is activated in response to an immunological trigger, brought about by aggregation of the high affinity receptors (FeεRI) for IgE, which are present on the cell surface of mast cells. This response involves crosslinking of cell bound IgE antibodies by the corresponding antigens (allergens).
Isolated, purified mast cells were sensitized in the presence of a monoclonal DNP-specific IgE antibody (1 μg/10^6 cells) for 1 hour at 37° C. The cells were washed 3 times and incubated for 2 hours with different concentrations of each peptide, followed by triggering with the antigen DNP-BSA (100 ng/ml) in the presence of Brain Extract (0.1 mg/ml), for 20 min. at 37° C. Placing the tubes in ice terminated the reaction. The amount of histamine released from the cells was monitored.

[3] = test system: protein tyrosine kinases (PTKs); test: Activation of protein tyrosine kinase in mast cells (anti-phospho-Tyr immunoblot); type: cell-based, rat; settings: 600 μg/ml peptide
[4] = test system: abdominal skin of C.R rats; test: Rat skin test: topical application of peptide, then intradermal compound 48/80 or saline, wheal area; type: in vivo
Procedure: The hair of the abdominal area of C.R rats was carefully removed with an electric clipper and a depilatory cream. In each animal the abdominal area was divided to six equal zones that were marked by pen. Each zone was either subjected to peptide treatment or served as a control. In the first set of experiments, the peptide was topically applied as follows: 36 μl of peptide solution at the indicated concentration (dissolved in 72% DMSO in saline) was applied on desired abdominal area. In the second set of experiments, the peptide was injected intradermally as follows: 20 μl of peptide solution at different concentrations (dissolved in 10% DMSO in saline) was injected intradermally to an indicated abdominal area using a 27-gauge sterile needle.
Skin tests were performed 0.5, 1 or 2 hours following application of the peptide. Skin tests were performed by injecting intradermally 20 μl of the allergen (0.1 mg/ml compound 48/80 dissolved in saline) or saline alone, into the center of each marked area on the abdominal skin using a 27-gauge sterile needle. The allergic response was monitored by outlining with a marker the wheals which developed in response to allergen or saline treatment.
To quantitate the skin test results, the marker signs were transferred onto paper with scotch tape. The areas of the wheals were outlined and calculated by a computerized planimeter (Hewlett-Packard), as previously described (Sussman et al., 1982).

[5] = test system: purified rat peritoneal mast cells; type: cell-based
Procedure: 37° C. […] Each data point represents the average of duplicate measurements. The spontaneously released histamine was subtracted.
First, the effect of compound 48/80 on exocytosis from intact mast cells was determined. […] Histamine release was determined and is presented as the net secretion that is % of the total cellular histamine following subtraction of the spontaneously released histamine. Half-maximal release was obtained at 0.1 μg/ml while maximal release was obtained at 1-10 μg/ml. Accordingly, in order to analyze the potential of each peptide to block histamine secretion, histamine secretion was induced with 5 μg/ml compound 48/80, a concentration that induces a maximal histamine release, while the cells were incubated in the presence of increasing concentrations of each peptide.
In order to investigate the ability of these peptides to block allergen-induced exocytosis, the peptides were examined for their ability to block compound 48/80 induced histamine secretion from intact mast cells in vitro. Mast cells were incubated with different concentrations of each peptide, followed by induction of histamine secretion by compound 48/80.

mice [6] = test: IgE dependent mouse conjunctivitis (ragweed pollen immunization); type: in vivo
[7] = test system: sensitized Brown Norway Rats; test: Rat model of allergic bronchoconstriction (ovalbumin challenge); type: in vivo; settings: peptide 2% nasally and into the trachea
[8] = test system: purified rat peritoneal mast cells; test: Inhibition of substance P induced histamine secretion; type: cell-based; settings: 50 μM substance P; 400 μg/ml peptide

Sequence: AAVALLPAVLLALLAPKNNLKECGLY [Peptide 2]
- Average Score, Chemosis (mice [1]; drug 24, 21, 18 hrs and 30 min before compound 48/80, Cromoglycate 2%, Dexamethazone 0.1%, Peptide 2 2%, no treatment 2.0): 0
- Average Score, Erythema (mice [1]; drug before compound 48/80, no treatment 0.8): 0.5
- Average Score, Tearing (mice [1]; drug before compound 48/80, no treatment 2.3): 1.1
- Average Score, Lid edema (mice [1]; drug before compound 48/80, no treatment 2.5): 0
- Average Score, Total score (mice [1]; drug before compound 48/80, no treatment 7.6): 1.6
- potency compared with steroids and cromoglycate, IgE-independent conjunctivitis (mice [1]; mouse, in vivo): as potent as steroids and two-fold more effective than cromoglycate
- block of IgE-independent allergic reaction, conjunctivitis model (mice [1]; topical, 2%): effectively blocks IgE-independent allergic reaction
- block of histamine secretion activated by an immunological trigger [2]: effectively block histamine secretion
- activation of protein tyrosine kinases induced by H2O2/VO3 [3]: did not inhibit
- PTKs activation induced by compound 48/80 ([3]; 5 μg/ml compound 48/80): inhibition
- Net wheal area, effect of peptide on 48/80 induced weal response ([4]; topical 1 mg/ml, Animal A, 1 hour after application): 41.4 mm2
- Net wheal area, effect of peptide on 48/80 induced weal response ([4]; topical 1 mg/ml, Animal B (footnote: 1 hour after application)): 39.8 mm2
- Net wheal area, effect of peptide on 48/80 induced weal response ([4]; topical 10 mg/ml, Animal A, 1 hour after application): 9.2 mm2
- Net wheal area, effect of peptide on 48/80 induced weal response ([4]; topical 10 mg/ml, Animal B (footnote: 1 hour after application)): 19.1 mm2
- net wheal area of compound 48/80-induced allergic reaction ([4]; topical application of 350 micrograms of peptide, without peptide 41-42 mm^2): 9-12 mm^2
- Wheal area, compound 48/80 injection ([4]; topical peptide 1 mg/ml, animal a, 1 hour after application): 126.00^a mm^2
- Wheal area, compound 48/80 injection ([4]; topical peptide 1 mg/ml, animal b, 2 hours after application): 106.70^b mm^2
- Wheal area, compound 48/80 injection ([4]; topical peptide 10 mg/ml, animal a, 1 hour after application): 94.46^a mm^2
- Wheal area, compound 48/80 injection ([4]; topical peptide 10 mg/ml, animal b, 2 hours after application): 85.48^b mm^2
- maximal inhibition of histamine secretion ([5]; 0.1 μg/ml compound 48/80, 600 μg/ml peptide): 84%
- inhibition of the maximal response (histamine secretion) ([5]; 5 μg/ml compound 48/80, peptide 600 μg/ml (FIG. 4)): 25%
- Inhibitor (degree of inhibition of histamine secretion from mast cells) ([5]; Table 1, incubation with different concentrations of each peptide, then induction of the allergic reaction): ++ (++ Moderate inhibitor (>70% inhibition))
- potency compared with FML and CsA, IgE dependent conjunctivitis (mice [6]; mouse, in vivo): as potent as steroid FML and similarly effective as CsA
- block of IgE dependent allergic reaction, conjunctivitis model (mice [6]; topical twice a day, 8 days, 1-2%): effectively blocks the IgE dependent allergic reaction
- bronchoconstriction induced by the OVA challenge [7]: significantly reduced
- maximal inhibition of substance P induced histamine secretion [8]: 67%
